Results taken from publication PMC4336329 (PLoS ONE, 2015).
Among all 310,000 compounds or so, about 2,200 (0.71%) showed an effect of 50% or more. Effects have a minus sign here. This is one part of the list.

Biological target: human ether-à-go-go-related gene (hERG) potassium channel (human, UniProt Q12809)
Test: primary screen, population patch clamp on CHO cells stably expressing hERG

Chain of human ether-à-go-go-related gene (hERG) potassium channel (Q12809 whole entry, looked up): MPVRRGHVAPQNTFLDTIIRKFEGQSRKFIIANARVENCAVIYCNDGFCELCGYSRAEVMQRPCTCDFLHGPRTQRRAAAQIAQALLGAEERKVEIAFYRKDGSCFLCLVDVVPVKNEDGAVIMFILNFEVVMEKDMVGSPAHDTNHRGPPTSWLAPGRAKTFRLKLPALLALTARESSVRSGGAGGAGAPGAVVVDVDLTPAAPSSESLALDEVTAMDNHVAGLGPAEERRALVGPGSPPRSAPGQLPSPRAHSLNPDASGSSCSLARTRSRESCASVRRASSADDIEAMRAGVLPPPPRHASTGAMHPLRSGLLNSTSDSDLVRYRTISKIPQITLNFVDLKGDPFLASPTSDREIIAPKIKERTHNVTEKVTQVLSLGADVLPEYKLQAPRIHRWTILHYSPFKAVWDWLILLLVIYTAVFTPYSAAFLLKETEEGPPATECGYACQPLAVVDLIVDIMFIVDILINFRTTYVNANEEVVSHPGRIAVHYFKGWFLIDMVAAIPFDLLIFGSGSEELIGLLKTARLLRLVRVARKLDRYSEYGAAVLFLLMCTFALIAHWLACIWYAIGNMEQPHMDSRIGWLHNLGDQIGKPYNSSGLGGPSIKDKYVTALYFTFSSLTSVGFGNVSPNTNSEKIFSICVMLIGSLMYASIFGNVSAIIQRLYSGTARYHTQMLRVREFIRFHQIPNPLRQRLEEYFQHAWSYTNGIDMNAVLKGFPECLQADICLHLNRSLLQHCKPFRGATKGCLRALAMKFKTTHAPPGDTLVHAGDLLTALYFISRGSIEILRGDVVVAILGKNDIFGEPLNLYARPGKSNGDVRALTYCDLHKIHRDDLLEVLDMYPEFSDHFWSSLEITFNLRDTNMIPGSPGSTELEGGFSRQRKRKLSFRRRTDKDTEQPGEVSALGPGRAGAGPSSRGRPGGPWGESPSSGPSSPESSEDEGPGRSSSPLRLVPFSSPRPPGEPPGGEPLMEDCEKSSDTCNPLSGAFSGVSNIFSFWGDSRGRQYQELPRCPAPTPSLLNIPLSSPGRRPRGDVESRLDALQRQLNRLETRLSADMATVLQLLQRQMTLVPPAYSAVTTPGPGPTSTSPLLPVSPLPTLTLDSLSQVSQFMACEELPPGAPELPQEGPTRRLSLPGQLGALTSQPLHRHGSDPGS

SMILES	hERG current change (%, negative = inhibition) at 1uM
Cc1ccc(C(=O)C(C)Sc2nnc(N)s2)cc1 (stereo not drawn)	1.71%
CN=C(C)/C(C(=O)OC)=C(/O)c1c(F)cccc1F	8.9%
O=C(NC1CCCC1)C(c1ccc(Cl)cc1)N1CCc2ccccc21 (stereo not drawn)	12.8%
CCOC(=O)N1CCN(CCC(=O)Nc2ccc(OC)cc2)CC1	5.78%
Cn1c(CCNC(=O)c2ccc(Cl)cc2)n[nH]c1=S	13.9%
CC(C)NC(=O)c1onc(CSc2ccccn2)c1C(=O)NC(C)C	11%
Cc1nc(N2CCN(c3ccccn3)CC2)c2c(C)c(C(=O)N3CCN(c4cccc(Cl)c4)CC3)sc2n1	15.3%
CCCCC(=O)N/N=C/c1ccc(N2CCOCC2)c([N+](=O)[O-])c1	8.47%
O=C(COc1ccc(C(F)(F)F)cc1[N+](=O)[O-])Nc1cccc(C(F)(F)F)c1	13.4%
N#CC1=C(N)Oc2cc(N)ccc2C1c1ccccc1Cl (stereo not drawn)	12.7%
CC1CCN(C(=O)CSc2nncn2-c2ccccn2)CC1	-9.59%
CC(C)c1ccc(C(C(=O)NC2CCCC2)N(C(=O)CNC(=O)c2ccco2)c2cccnc2)cc1 (stereo not drawn)	4.41%
COCCNC(=O)[C@H](CSCc1ccccc1)N1Cc2ccccc2C1=O	-1.94%
Cc1cccc(NS(=O)(=O)c2cccc(C(=O)N3CCCC(C(F)(F)F)C3)c2)c1 (stereo not drawn)	0.23%
O=S(=O)(c1ccc(Cl)c(NC(=S)N/N=C/c2ccc(O)cc2)c1)N1CCOCC1	8.96%
CSCc1ccc(C(=O)NC(C)c2cnn(-c3ccccn3)c2C)o1 (stereo not drawn)	9.25%
CCN(CC)S(=O)(=O)c1cc(C(=O)OC(C)C(=O)NCc2ccco2)ccc1C (stereo not drawn)	8.22%
Cc1ccc2nsnc2c1NC(=O)c1ccc2c(c1)OCCO2	7.57%
O=S(=O)(Nc1nc2ccccc2nc1Cl)c1ccc(Br)cc1	14.8%
CC(=O)Nc1ccc(S(=O)(=O)NCCSc2ccccn2)cc1	4.41%
CCCN1CCC(NC(=O)Cc2cccc(C)c2)CC1	4.41%
COc1ccccc1Cc1nc(-c2cccnc2)no1	11.9%
COc1ccc(CCNC(=O)COC(=O)c2sc(C)nc2C)cc1	5.54%

SMILES	hERG current change (%, negative = inhibition) at 1uM
CSc1ccccc1OCc1cc(C(=O)N(C)Cc2nonc2C)no1	9.21%
Cc1cc(C)n2nc(Cc3ccccc3)nc2n1	-5.47%
Cc1ccc(Nc2nc(NCCCN3CCOCC3)nc(N)c2[N+](=O)[O-])cc1	-56.2%
Cc1nc(-c2ccc(F)cc2)c(CC(=O)Nc2cccc(S(=O)(=O)N3CCOCC3)c2)s1	3.21%
Cc1c(CCOC(=O)CC23CC4CC(CC(C4)C2)C3)sc[n+]1CC(=O)c1ccc(Br)cc1.[Br-]	-63.5%
O=C1CC(c2ccc(Cl)cc2)n2nc(N3C(=O)CCC3=O)nc2N1 (stereo not drawn)	14%
CC(=O)Nc1ccc(S(=O)(=O)N(C)CC(=O)OCC(=O)Nc2ccc3c(c2)OCO3)cc1	7.49%
CCOCCCNC(=O)C1CCN(Cc2cccc(OCc3ccccc3)c2)CC1.O=C(O)C(=O)O	9.45%
CCOC(=O)c1ccc(Nc2ccc([N+](=O)[O-])cn2)cc1	15.2%
O=C(NCc1ccccc1Cl)c1cccc(NC2=NC3CS(=O)(=O)CC3S2)c1 (stereo not drawn)	11.3%
CC(=O)c1cccc(NC(=O)NCc2cccnc2)c1	14.7%
CC1CCCCC1N(C)C1CCN(C(=O)CNC(=O)/C=C/c2cccc(Cl)c2)CC1 (stereo not drawn)	-47.7%
CCCCN(CC)C(=O)Cc1ccc(Br)cc1	14.5%
CN1C2CCC1/C(=C/c1cccn1C)C(=O)/C2=C\c1cccn1C	7.69%
CC(C)N(NC(=O)c1cccc2ccccc12)C(C)C	9.21%
CN(C)c1cccc(NC(=O)C2(C)CC2(Cl)Cl)c1 (stereo not drawn)	0.721%
CCOc1ccc(C2=Nn3c(nnc3-c3ccccc3)SC2)cc1Cl	18.5%
COc1ccccc1CN1CCN(Cc2nc(-c3cccs3)no2)CC1	-5.89%
Cc1ccc(S(=O)(=O)N/N=C/c2ccc(OCC(=O)NC(C)C)cc2)cc1	-9.04%
CC12CCC(C(=O)NCCc3ccccc3)(OC1=O)C2(C)C (stereo not drawn)	11.4%
O=C(CSc1ccc(F)cc1)N1CCC(c2nc3ccccc3s2)CC1	-30.3%
O=C(NC1=NCCS1)c1ccc(N2CCCC2=O)cc1	9.39%
O=C(NCc1cccc2[nH]ccc12)C1CCC(=O)N(CCc2ccc(Cl)cc2)C1 (stereo not drawn)	4.56%

SMILES	hERG current change (%, negative = inhibition) at 1uM
C=CCn1c(O)c(/C=N/N2CCCCC2)c(=O)[nH]c1=O	-48%
CCN1CCC(n2nccc2NC(=O)c2ccccc2Cl)CC1	10.5%
CCc1nc(SCC(=O)O)c2c3c(sc2n1)COC(C)(C)C3	13.3%
CCNC(=O)CSc1nnc(-c2ccc(OC)cc2)n1CC(C)C	3.23%
Cc1cccc(C(C)C)c1NC(=O)CSc1nncn1C	-0.611%
COc1cc(C(=O)Nc2nc(C)cc(C)n2)cc(OC)c1OC	14.4%
CCOC(=O)CCCC(=O)N1CCOCCOCCN(C(=O)CCCC(=O)OCC)CCOCCOCC1	13.1%
O=C(Nc1nccs1)c1ccc(-c2ccc(F)c(Cl)c2)o1	-5.48%
CC1CCCCN1C(=O)CCn1c(=O)oc2ccccc21 (stereo not drawn)	4.53%
Cc1ccc(S(=O)(=O)Nc2ccc(S(=O)(=O)Nc3cc(C)nc(C)n3)cc2)cc1	16.5%
Cc1sc(NC(=O)/C=C/c2ccc(C(C)C)cc2)c(C#N)c1C	0.196%
Cl.OCCN1CCN(CCSc2ccccc2)CC1	4.45%
Cc1[nH]c(=O)[nH]c(=O)c1NS(=O)(=O)c1ccc2c(c1)CCCC2	19.7%
O=C(Nc1cccc(Cl)c1)c1cnc[nH]1	14.9%
CCN(CC)C(=O)CN(c1ccc(C)cc1)S(=O)(=O)c1ccc(SC)cc1	6.52%
COc1ccc(S(=O)(=O)NNC(=O)c2ccc(-n3c(C)ccc3C)cc2)cc1	12.7%
O=c1oc2ccc(Br)cc2cc1S(=O)(=O)c1ccc(F)cc1	3.22%
O=C1COc2ccc(C(=O)CSc3ccc(Br)cc3)cc2N1	13.5%
Cc1ccc(-n2nc3c4c(cccc4c2=O)-c2ccccc2-3)cc1	4.99%
O=C(NCC(c1ccco1)N1CCCC1)c1sc2ccccc2c1Cl (stereo not drawn)	13.6%
CCCCNC(=O)c1onc(CSc2ccc(F)c(F)c2)c1C(=O)NCCCC	1.49%
Cc1cc(C(=O)NNC(=O)Nc2ccc(Cl)cc2)no1	14.6%
Cc1c(NC(=O)c2nn3c(C(F)(F)F)cc(-c4ccccc4)nc3c2Cl)c(=O)n(-c2ccccc2)n1C	1.07%

SMILES	hERG current change (%, negative = inhibition) at 1uM
O=C1C2C3CCC(C3)C2C(=O)N1Cc1ccccc1 (stereo not drawn)	5.58%
C=CCn1c(SCc2nnc(-c3ccccc3)o2)nnc1C(O)c1ccccc1 (stereo not drawn)	2.77%
CSCCC(NS(=O)(=O)c1ccc(C)cc1)C(=O)N1CCN(S(=O)(=O)c2ccc(F)cc2)CC1 (stereo not drawn)	9.66%
CC(C)Cc1ccc(C(C)C(N)=NCCc2ccccc2)cc1.Cl (stereo not drawn)	-16%
COc1ccc(C(=O)COC(=O)/C=C/c2ccco2)cc1F	6.76%
COCCN(C(=S)Nc1cccc(OC)c1)C1CCN(C(C)C)CC1	1.92%
Cc1cc(C)c2oc(C(=O)NCCc3ccc(S(N)(=O)=O)cc3)cc(=O)c2c1	16.3%
CC(NO)C(C)(C)NO.Cl (stereo not drawn)	8.21%
CCOC(=O)C1CCN(S(=O)(=O)c2ccc(C(C)=O)cc2)CC1	-1.82%
OC(Cc1nc2ccccc2[nH]1)c1ccccc1Cl (stereo not drawn)	6.43%
Cc1sc2ncnc(N3CCN(CCOc4ccc(Cl)cc4)CC3)c2c1C	2.86%
S=C(NCc1ccc(Cl)cc1)NCc1ccccn1	9.96%
COc1ccc(-c2c(C)nn3c(N4CCOCC4)cc(C)nc23)cc1OC	14.5%
CSCCc1nc(SCC(=O)Nc2nnc(C)s2)[nH]c1C	17%
CC(C)(C)C(=O)COC(=O)CNC(=O)c1ccc(Oc2ccccc2)cc1	5.18%
CC(C)N(Cc1ccccc1)C(=S)Nc1cccnc1	6.91%
COc1ccc(C2CC(c3cc(OC)ccc3OC)n3nnnc3N2)cc1 (stereo not drawn)	8.39%
COc1cc(NS(=O)(=O)c2ccc(NS(=O)(=O)c3ccc(C)cc3)cc2)nc(OC)n1	25.8%
CCOC(=O)CN1C(=O)Nc2ccc(Br)cc2C1c1ccccc1 (stereo not drawn)	-47.9%
Cc1cccc(NC(=O)Cn2c(=O)n(CC3CCCO3)c(=O)c3ccccc32)c1 (stereo not drawn)	22.5%
CCN(CCCNC(=O)CNC(=O)c1nn(-c2ccc(OC)c(OC)c2)c(=O)c2ccccc12)c1ccccc1	0.102%
